Inconclusive means that the source gave no clear call. Such entries were picked first, then a sample of the others. Potencies of inconclusive entries are doubtful fits and often do not repeat. Calls of active or inactive are those of the source. Calls come from the whole dose curve; as a rule, active = well fitted cell-killing curve with a large enough effect in the repeat runs; inconclusive = weak or mixed curves; inactive = no such curve, though single readings can be large or run the other way.
Test: qHTS assay to identify small molecule agonists of the peroxisome proliferator-activated receptor delta (PPARd) signaling pathway - cell viability counter screen (AID 743211); note: nearly all actives have a fitted effect of over 55% in size
Conditions: PPARd-bla HEK293H viability, CellTiter-Glo luminescence, 17 h; activity change, negative = cytotoxicity: at 62.6 µM (top of the series)
Outline: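 PPARd-bla HEK293H cells (UAS-beta-lactamase reporter) were treated with compounds for 17 h at 37 C. Viability was then read in the same wells by CellTiter-Glo luminescence after 30 min at room temperature.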
For `Nc1ccc2c3c(cccc13)-c1ccccc1-2`, the Potency was active: 55.5 µM.
In the case of `CN1CCC(Nc2ncc3ncnc(Nc4ccc(F)c(Cl)c4)c3n2)CC1`, the Potency is reported as active: 23.7 µM.
With `CC1(C)C(=O)N(Br)C(=O)N1Cl` the “activity change, negative = cytotoxicity” value was inactive: 3.37%.
With `CCOC(=O)c1ccc(C2CCC(NC[C@H](O)COc3ccc(O)c(NS(C)(=O)=O)c3)CC2)cc1` (stereo partly specified) the Potency was active: 35.9 µM.
In the case of `Cc1ccc(-n2nc(C(C)(C)C)cc2NC(=O)Nc2ccc(OCCN3CCOCC3)c3ccccc23)cc1`, the Potency is reported as inconclusive: 18.8 µM [cytotoxic, partial curve].
For `COC(=O)C1=C(C)NC(C)=C(C(=O)OCCN2CCN(C(c3ccccc3)c3ccccc3)CC2)C1c1cccc([N+](=O)[O-])c1` (stereo unspecified), the Potency was inconclusive: 11.9 µM [cytotoxic, full curve].
For `COc1c(C)c2c(c(O)c1C/C=C(\C)CCC(=O)OCCN1CCOCC1)C(=O)OC2`, the Potency was inconclusive: 3.35 µM [cytotoxic, full curve].
With `CN(CCCN1c2ccccc2CCc2ccccc21)CC(=O)c1ccc(Cl)cc1` the Potency was inconclusive: 29.8 µM [cytotoxic, partial curve, poor fit].
With `CCCCCCCCCCCSCC(=O)O` the Potency was active: 15.5 µM.
For `CCOC(=O)c1ccc(NC(=O)CN2CCCCC2)cc1`, the “activity change, negative = cytotoxicity” value was inactive: 1.94%.
With `O=C(N[C@@H](c1ccccc1)[C@@H]1CCCCN1)c1cccc(C(F)(F)F)c1Cl` the Potency was active: 27.5 µM.
% is set by controls: 0 for no effect and ±100 for the full control effect; potency is the fitted concentration of half-maximal effect; tags give direction and shape of the fitted curve.
